About 1,800 (2.5%) of roughly 71,000 compounds were called active. The inconclusive results got no clear call from the source; some entries with a clear call stand among them for comparison. Calls come from the whole dose curve; as a rule, active = well fitted activation curve with a large enough effect in the signal ratio, with a control signal flat (not every such curve was filed as active); inconclusive = small, poorly fitted or top-dose-only effect, or effect the other way, or a change in a side signal; inactive = flat fitted curve, though single readings scatter; the % refers to the signal ratio. Potencies of inconclusive entries are doubtful fits and often do not repeat.
Experiment: Cell signaling CRE-BLA (Fsk stim); for activity change, negative = inhibition: % of control where 0% means no effect
Settings: CHO CRE-bla reporter (cAMP response element driving beta-lactamase), forskolin EC10, beta-lactamase ratio; activity change, negative = inhibition: at 38.2 µM (top of the series) unless noted
Procedure, shortened: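 CHO CRE-bla cells, overnight plating in Opti-MEM with 0.5% dialyzed FBS; cpd titration + EC10 NKH 477, 3 h 37 °C; CCF4 2 h RT; ex 405/em 460 vs 530 ratio → %Activity, AC50.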
Potency is the fitted concentration of half-maximal effect; tags give direction and shape of the fitted curve.

| SMILES | Potency | activity change, negative = inhibition |
| --- | --- | --- |
| CCOC(=O)c1nc(-c2ccccc2)oc1N(C)C | inconclusive: 20 µM [rising, single point] | – |
| COc1ccccc1C1=Nn2c(nnc2C2CCCCC2)SC1 | inconclusive: 5.01 µM [falling, single point] | – |
| C=CCSc1nc2c(c(=O)[nH]c(=O)n2C)n1CC | inconclusive: 12.6 µM [rising, single point] | – |
| COc1ccc(NC(=O)C2CCN(S(=O)(=O)c3cccc4cccnc34)CC2)cc1OC | inconclusive: 12.6 µM [rising, single point] | – |
| O=C(COc1ccccc1)N(Cc1ccco1)c1ccc(O)cc1 | – | inactive: -15.1% |
| CCC(Sc1nnc(C)s1)C(=O)Nc1nccs1 (stereo not given) | inconclusive: 10 µM [rising, partial curve] | – |
| COc1cccc(Nc2ncc3nc(-c4ccccc4)c(=O)n(C)c3n2)c1 | inconclusive: 10 µM [rising, partial curve] | – |
| CCOc1ccccc1C(=O)Nc1ccc(S(=O)(=O)N2CCOCC2)cc1 | active: 3.16 µM | – |
| O=C(C1CC1)N1CCc2cc(S(=O)(=O)N3CCOCC3)ccc21 | inconclusive: 10 µM [rising, partial curve] | – |
| Cc1noc(/C=C/c2ccco2)c1S(=O)(=O)N1CCC(C(=O)N2c3ccccc3CC2C)CC1 (stereo not given) | – | inconclusive: 0.0947% |
| COc1cc(-c2c(C#N)c(=O)[nH]c3c2c(C)nn3-c2ccccc2)ccc1O | inconclusive: 15.8 µM [rising, single point] | – |
| COC(=O)CC1C(=O)NCCN1C(=O)CSc1nnc(Nc2ccc(OC)cc2)s1 (stereo not given) | – | inconclusive: -14% |
| CCCCC/C=C\C[C@H](O)/C=C\c1cccc(C[C@H](O)CCCCO)n1 | – | inconclusive: -12.8% |
| CN1CCN(CC(=O)N(C)c2nc(-c3ccccc3)cs2)CC1 | – | inactive: 7.6% |
| CCn1c(-c2ccc3[nH]c(C)c(C)c3c2)n[nH]c1=S | inconclusive: 12.6 µM [rising, single point] | – |
| O=C(Cc1cccs1)Nc1cccnc1 | – | inactive: -10% |
| COc1ccccc1NC(=O)CN1CCC(n2nnc3cc(F)ccc32)CC1 | inconclusive: 15.8 µM [rising, single point] | – |
| COc1ccc(-n2c(=O)c(-c3ccccc3)nc3cnc(N4CCN(C)CC4)nc32)cc1 | inconclusive: 10 µM [rising, partial curve] | – |
| CCNC(=O)CC1C(=O)N(c2ccc(F)cc2)C(=O)N1CCc1ccc(OC)cc1 (stereo not given) | inconclusive: 0.631 µM [rising, full curve, poor fit] | – |
| O=C(NC1CCCC1)c1cc(-c2cccs2)on1 | – | inconclusive: 23.3% |
| Cn1cccc1C(=O)N1CCC2(CCCN(c3ncccn3)C2)CC1 | – | inactive: -4.84% |
| CCCn1c(-c2ccc(OC)cc2)nc2nc3ccccc3nc21 | active: 10 µM | – |
| Cn1c(=O)c2[nH]c(-c3ccc(S(=O)(=O)O)cc3)nc2n(C)c1=O | – | inactive: -0.402% |
| CCOC(=O)N1CCC(NC(=O)c2cc(S(=O)(=O)N3CCc4ccccc43)cn2C)CC1 | – | inconclusive: 9.86% |
| CCCCOc1ccccc1C1C(C(N)=O)=C(C)Nc2nnnn21 (stereo not given) | inconclusive: 0.1 µM [rising, full curve] | – |
| C=CCSc1nc2c(c(=O)n(C)c(=O)n2C)n1CC | inconclusive: 10 µM [rising, single point] | – |
| O=C(Cc1ccc(F)cc1)N(c1ccccc1)C1C=CS(=O)(=O)C1 (stereo not given) | – | inconclusive: 9.45% |

| SMILES | Potency | activity change, negative = inhibition |
| --- | --- | --- |
| O=C(CN1C(=O)C2C3C=CC(C3)C2C1=O)Nc1cccc2c1CCCC2 (stereo not given) | inconclusive: 0.251 µM [falling, full curve] | – |
| Cc1ccc(-c2nnc(CSc3nnc(C)s3)o2)cc1 | – | inconclusive: -6.08% |
| NNC(=O)CCSc1ccccc1 | – | inactive: 0.0677% [at 7.6 µM] |
| CSc1ccc(S(=O)(=O)N2CCN(Cc3ccc4c(c3)OCO4)CC2)cc1 | – | inconclusive: 15% [cytotoxic] |
| O=C(c1cc2c(=O)oc3ccccc3c2s1)N1CCOCC1 | – | inconclusive: 36% |
| CCC(C)(C)NC(=O)CN(C(=O)c1snc(C(N)=O)c1N)c1ccc2c(c1)OCO2 | – | inactive: -6.38% |
| COc1ccccc1OCc1ccc(C(=O)N2CCN(C(=O)c3ccco3)CC2)cc1 | – | inconclusive: -15% |
| CCOC(=O)N1CCC(NC(=O)c2cc(C(=O)Nc3cccc(OC)c3)ccc2CO)CC1 | – | inconclusive: -26.4% |
| CCN[C@@H]1C[C@H](N)[C@H](O[C@H]2OC(CN)=CC[C@H]2N)[C@@H](O)[C@H]1O[C@H]1OC[C@@](C)(O)[C@@H](NC)[C@@H]1O | – | inactive: -3.89% [at 17.1 µM] |
| CCCCc1n[nH]c2c1C(=O)CC(C)(C)C2 | – | inconclusive: 4.41% |
| O=C(c1cc(-c2cccs2)on1)N1CCCCC1 | – | inconclusive: 7.78% |
| Cn1cc(/C=N/n2cnc3scc(-c4ccccc4)c3c2=O)c2ccccc21 | – | inactive: 15.7% |
| Cc1ccccc1NC(=O)c1c(O)c2cccc3c2n(c1=O)CCC3 | – | inconclusive: -2.41% |
| O=C(NCc1ccc2c(c1)OCO2)C(c1ccco1)N(C(=O)c1csnn1)c1ccccc1 (stereo not given) | inconclusive: 5.01 µM [rising, single point] | – |
| COc1ccc2ccccc2c1C1CC(=O)N2CN(C)CSC2=C1C#N (stereo not given) | – | inconclusive: -4.4% |
| CCOC(=O)C1CCN(C(=O)c2cc3c(-c4ccc(OC)c(OC)c4)nn(C)c3s2)CC1 | active: 2.51 µM | – |
| O=c1c2c(nc3c(-c4ccc(Cl)cc4)c[nH]n13)CCCC2 | – | inactive: 5.22% |
| Cc1cc(C(=O)Nc2ccc3c(c2)OCO3)cs1 | – | inconclusive: -1.81% |
| O=c1n(Cc2ccccc2)c2cc(Cl)cnc2n1Cc1ccccc1 | – | inconclusive: -16.2% |
| O=C(O)C/C=C\CC(=O)O | – | inactive: 0.0331% [at 7.6 µM] |
| O=C(CCc1c[nH]c2ccccc12)NCC1CCCO1 (stereo not given) | – | inconclusive: -11.8% |
| c1ccn2c(CNc3ncnc4sccc34)nnc2c1 | – | inactive: 16.7% |
| Cc1ccc2oc(=O)c3cc(C(=O)NCc4ccco4)sc3c2c1 | inconclusive: 3.98 µM [rising, partial curve] | – |
| CSc1nc2c(c(-c3ccc(O)cc3)c1C#N)CCC2 | inconclusive: 6.31 µM [rising, partial curve] | – |
| Cn1c(=O)c2nc(Cl)n(Cc3ccc(Cl)cc3Cl)c2n(C)c1=O | – | inactive: -7.27% |
| C=CCNC(=O)C1CC(=O)N(c2ccc(OCC(=O)Nc3ccc(C)cc3)cc2)C1 (stereo not given) | – | inactive: 1.43% |
| CCN(CC)c1ccc(NC(=O)c2cncc(Br)c2)cc1 | – | inconclusive: -22.2% |

| SMILES | Potency | activity change, negative = inhibition |
| --- | --- | --- |
| CC(=O)NCCNc1ncnc2ccc(-c3ccccc3C(F)(F)F)cc12 | – | inconclusive: 22.8% |
| CN=C(N)NCCC[C@H](N)C(=O)O | – | inconclusive: -9.92% |
| CCOC(=O)c1oc2ccccc2c1NC(=O)Cc1cccs1 | inconclusive: 10 µM [rising, partial curve] | – |
| CCc1ccccc1N(CC(=O)N1CCN(c2ccc(F)cc2)CC1)S(C)(=O)=O | inconclusive: 5.01 µM [falling, single point] | – |
| COc1ccc(Oc2ncc3nc(-c4cccs4)c(=O)n(CCC#N)c3n2)cc1 | inconclusive: 2 µM [rising, full curve] | – |
| Cc1cc(NCCN2CCOCC2)n2nc(C)c(-c3ccccc3)c2n1 | inconclusive: 10 µM [rising, single point] | – |
| Cc1oc2c(CN3CCOCC3)c(O)ccc2c(=O)c1-c1ccccc1 | – | inactive: 8.31% |
| CCOC(=O)/C(C#N)=C(\N)C(C)C(=O)Nc1ccccn1 (stereo not given) | – | inactive: 1.83% |
| CC(C)Cc1ccc(/C(=N/O)C(=O)O)s1 | inconclusive: 20 µM [rising, single point] | – |
| O=c1c(-c2cccs2)nc2cncnc2n1Cc1ccccc1 | inconclusive: 5.01 µM [rising, partial curve] | – |
| O=C(CC1COc2ccccc2O1)NC1CCCCC1 (stereo not given) | – | inconclusive: 14.7% |
| COC(=O)CN(c1ccc(C)c(Cl)c1)S(C)(=O)=O | – | inconclusive: -20% [at 7.6 µM] |
| CCSc1ccccc1C(=O)Nc1cc(C)on1 | – | inactive: 4.14% |
| CCSc1nnc(-c2ccc(Cl)cc2Cl)o1 | inconclusive: 0.316 µM [rising, full curve, poor fit] | – |
| Cc1onc(-c2ccccc2)c1C(=O)Nc1sc2c(c1C#N)CCC(C)C2 (stereo not given) | inconclusive: 6.31 µM [rising, partial curve] | – |
| Nc1nc2c(c(=O)[nH]1)N[C@H](CCNc1ccc(C(=O)O)cc1)CN2 | – | inactive: -8.17% [at 7.6 µM] |
| O=C(Nc1cccc(F)c1)N1CCCC2(CCN(C(=O)c3cnccn3)CC2)C1 | – | inactive: 0.124% |
| Cc1cc(C(=O)N[C@@H](c2ccccc2)[C@]2(C)C[C@H]2[C@@H](C)C(=O)Nc2ccc3ccccc3c2)n(C)n1 | – | inactive: -19.3% |
| O=C(CC1C(=O)NCCN1C(=O)Nc1ccccc1)Nc1ccc2c(c1)OCCO2 (stereo not given) | – | inconclusive: 3.85% |
| Oc1cccc2ccc(SSc3ccc4cccc(O)c4n3)nc12 | – | inactive: -5.61% [at 7.6 µM] |
| CCC(=O)O[C@@]1(C(=O)SCF)[C@@H](C)C[C@H]2[C@@H]3C[C@@H](F)C4=CC(=O)C=C[C@@]4(C)[C@]3(F)[C@@H](O)C[C@]21C | – | inactive: 8.52% [at 17.1 µM] |
| CN(C)c1ccc(NC(=O)CN2CCC(C(=O)c3ccc(F)cc3)CC2)cc1 | – | inactive: -7.23% |
| CCOC(=O)c1ccc2c(c1)nc(SCC(=O)c1ccco1)n2CC | inconclusive: 20 µM [rising, single point] | – |
| CCOC(=O)CSc1nnc(CNC(=O)c2cc(OC)c(OC)c(OC)c2)n1C | – | inconclusive: 21.2% |
| CC1CN(C(=O)c2cnn3c(C(F)F)cc(-c4ccccc4)nc23)CC(C)O1 (stereo not given) | inconclusive: 12.6 µM [rising, partial curve] | – |
| CC1CCC(C(C)C)C(OC(=O)CSc2n[nH]c(=O)[nH]c2=O)C1 (stereo not given) | – | inactive: -8.01% |
